Experimental data as given in PubChem BioAssay AID602393 (Broad Institute, 2012).
“And” between values parts separate entries of the source, which are not always exact repeats. Equal entries are not always repeated. Hit rate of the full screen: of about 350,000 compounds, about 7,000 (2%) were called active. Inconclusive results, whose numbers are uncertain, are shown with a selection of clear calls. No stated cut-off is given here; in the data, active means activation above about 40%; inconclusive means no clear call, values can overlap the other calls; inactive means below that.

Experiment: raisers of Bmi1 knock-in reporter signal – mouse ES cells, Bmi1 luciferase knock-in, single point, esBAF inhibitor project, primary screen (AID 602393);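 further: 0% = median of the plate's neutral control wells and 100% = double that signal; a rise in the Bmi1 reporter signal indicates esBAF inhibition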
Settings: 24 h, at 12.5 µM, active compounds read high, 100% = twice the neutral-well signal

Row | SMILES | reporter increase
1 | Cc1ccc(Nc2nc(-c3sc(N)nc3C)cs2)cc1 | inconclusive: 43.3%
2 | Cc1ccc(C)c(NC(=S)NNC(=O)c2sccc2C)c1 | inconclusive: 40.3%
3 | CN(C)C(CNC(=O)c1ccc2nccnc2c1)c1ccco1 (stereo not given) | inconclusive: 44.8%
4 | O=C(CSc1ncc(-c2ccccc2)[nH]1)Nc1ccccc1F | inconclusive: 46.9%
5 | Cc1noc(C)c1S(=O)(=O)Nc1ccc2c(c1)C(=O)N([C@@H](C)CO)C[C@@H](C)[C@@H](CN(C)Cc1ccc(-c3ccccc3)cc1)O2 | inactive: 0.671%
6 | O=C(Nc1ccccn1)c1ccc(Br)s1 | active: 47.9%
7 | N#Cc1ccc(C(=O)NC2=NCCS2)cc1 | active: 48%
8 | NC(=O)c1ccc(-c2ccc(Br)cc2)o1 | inconclusive: 44.3%
9 | O=C(CSc1nnnn1-c1ccccc1)NC(=O)Nc1ccc2c(c1)OCCO2 | inconclusive: 38.3%
10 | O=C(Nc1nc(-c2cc(F)ccc2F)cs1)C1=COCCO1 | inconclusive: 40.9%
11 | Oc1ccc(-c2nccc(-c3ccc(F)cc3)n2)cc1 | inconclusive: 51.9%
12 | CC(C)C[C@@H](CN1CCC[C@@H]1CN1C(=S)NC[C@@H]1Cc1ccc(O)cc1)N1C[C@H](Cc2ccc(O)cc2)N(CC2CCCCCC2)C1=S | inactive: 9.7%
13 | NC(=O)c1c(NC(=O)c2ccccc2Cl)sc2c1CCC2 | inconclusive: 41.2%
14 | Cn1ccc2c(-c3ccc4c(c3)OCCO4)cc3c(c21)C1CCC3O1 (stereo not given) | inconclusive: 46.7%
15 | Cc1ccccc1S(=O)(=O)N1CC[C@@H]2[C@H](CO)Nc3ccc(-c4ccccc4)cc3[C@@H]21 | inactive: -3.25%
16 | O=C(Nc1ccccc1)c1ccc(-c2ccccc2C(F)(F)F)o1 | active: 52.2%
17 | Cc1cc(NC(=O)CSc2cn(CCNC(=O)c3ccc(Cl)cc3)c3ccccc23)no1 | inconclusive: 41.5%
18 | COc1ccc(NC(=O)Nc2ccc3c(c2)[C@@H]2C[C@@H](CC(=O)NC4CCCC4)O[C@H](CO)[C@@H]2O3)cc1 | inactive: -2.09%
19 | C[C@H](O)C#Cc1ccc2c(c1)O[C@H](CN(C)Cc1ccc(-c3ccccc3)cc1)[C@@H](C)CN([C@H](C)CO)S2(=O)=O | inactive: 8.36%
20 | Clc1cccc(-c2cc3nc4c(c(N5CCOCC5)n3n2)CCCC4)c1 | inconclusive: 43.5%
21 | CC(=O)Nc1ccc(/C=C/c2ccc3c([N+](=O)[O-])cccc3n2)cc1 | inconclusive: 31.5%
22 | O=[N+]([O-])c1ccccc1/C=N/Nc1nccnc1Cl | inconclusive: 42.8%
23 | O=C(Nc1c(Cl)cccc1Cl)c1ccc(-c2ccccc2)cc1 | inconclusive: 41.2%

Row | SMILES | reporter increase
24 | CCCCOC(=O)Nc1ccc(C)c(Cl)c1 | active: 56.8%
25 | CC(C)NC(=O)N(C)C[C@H]1OCc2cn(nn2)CCCC(=O)N([C@@H](C)CO)C[C@@H]1C | inactive: 2.71% and inactive: 2.21%
26 | CCC(=O)Nc1cccc(-c2cnc3ccccc3n2)c1 | inconclusive: 41%
27 | Cn1c(=O)c(C(=O)NCC2CCCO2)c(O)c2ccccc21 (stereo not given) | inconclusive: 55%
28 | COc1ccc(NC(=O)c2sc3nc(C)cc(C)c3c2N)cc1 | inconclusive: 55.7%
29 | CC1CCC(NC(=O)c2nn(C)c3c2CSc2ccccc2-3)CC1 (stereo not given) | inconclusive: 40%
30 | NC(=O)c1c(NC(=O)c2ccccc2)sc2c1CCC2 | inconclusive: 45.1%
31 | COc1cccc(/C=N/NC(=O)NC2CCCCC2)c1O | inconclusive: 40.5%
32 | COc1ccc(-c2cc(C(=O)Nc3cccc(Cl)c3)no2)cc1 | inconclusive: 38.5%
33 | Cc1ccc(Cn2cc(/C=N/Nc3ccc([N+](=O)[O-])cn3)c3ccccc32)cc1 | active: 44.8%
34 | NC(=O)Cc1ccc(C(=O)c2ccc(Cl)cc2)s1 | inactive: 16.6%
35 | Cc1cccc(C=Nc2ccccc2C(N)=O)c1 | inconclusive: 44.5%
36 | C[C@H]1CCCCO[C@@H](CN(C)Cc2ccncc2)[C@@H](C)CN([C@@H](C)CO)C(=O)c2cc(NS(=O)(=O)c3ccc(F)cc3)ccc2O1 | inactive: 0.967%
37 | CCCCCCCCCCOC(=O)Cn1c(COc2ccccc2OC)[n+](C)c2ccccc21 | inactive: -26.5%
38 | CN(C)CC(=O)N[C@@H]1C=C[C@@H](CC(=O)NCc2ccc(Cl)cc2)O[C@H]1CO | inactive: 1.1%
39 | C(=NN=C(NN=Cc1cccs1)NN=Cc1cccs1)c1cccs1 | inactive: 27.4%
40 | Cc1ccc(NC(=O)c2cc(F)c(F)cc2Cl)nc1 | active: 44.2%
41 | CC1CC(C)(C)N(C(=O)NC2CCCCC2)c2ccccc21 (stereo not given) | inconclusive: 40.5%
42 | Cc1cccc(NC(=O)CSc2nnc(-c3ccccc3C)o2)c1 | active: 44.5%
43 | S=C(Nc1ccc2c(c1)OCO2)Nc1ccc2c(c1)OCO2 | active: 50.6%
44 | COc1ccc(-c2nnc(SCc3cccnc3)o2)cc1 | active: 52.4%
45 | NC(=O)c1ccccc1OCc1nnc(-c2ccccc2Br)o1 | inconclusive: 40.7%
46 | O=C(CSc1nnc(-c2ccccc2Cl)o1)N1CCCCC1 | inconclusive: 40.6%

Row | SMILES | reporter increase
47 | Cc1ccccc1NC(=O)c1ccc2c(c1)OCCO2 | active: 46.7%
48 | O=C(Nc1ccc(C(F)(F)F)cc1)c1ccc2ncsc2c1 | active: 58.5%
49 | c1cnc2nc(-c3ccc4c(c3)OCO4)cn2c1 | inconclusive: 41.8%
50 | OC(c1ccc(F)cc1)c1ncc(-c2ccccc2F)[nH]1 (stereo not given) | inconclusive: 45.1%
51 | O=C(CSc1nc2ccccc2o1)c1cc2ccccc2oc1=O | inconclusive: 42.6%
52 | Cc1ccc(S(=O)(=O)N2CC[C@@H]3[C@H](CO)Nc4ccc(-c5ccccc5F)cc4[C@@H]32)cc1 | inactive: -11.1%
53 | CN1c2ccc(Br)cc2[C@@H]2[C@@H](CCN2C(=O)CN2CCOCC2)[C@@H]1CO | inactive: -3.25%
54 | COc1ccc(C(=O)CNc2ccccc2Br)cc1 | inconclusive: 62.2%
55 | COc1ccc(/C=N/NC(=O)Cc2cccs2)cc1 | active: 58.6%
56 | COc1ccc(NC(=O)c2cc3ccccc3[nH]2)cc1 | inconclusive: 40.6%
57 | CS(=O)(=O)N1[C@@H](C#N)[C@@H](c2ccc(-c3ccccc3F)cc2)[C@@H]1CO | inactive: 2.48%
58 | O=C(Nc1ccc(Cl)cc1)c1cccs1 | active: 52.3%
59 | CC(C)(C)c1ccc(S(=O)(=O)NCC(=O)Nc2ccc(-c3nc4ccccc4s3)cc2)cc1 | active: 52.9%
60 | COc1ccc(S(=O)(=O)N2CCC3(CC2)OCCN3S(=O)(=O)c2cccs2)cc1 | inactive: 10.1%
61 | COc1ccc(NC(=O)COC(=O)c2ccc3c(c2)OCCO3)cc1 | inactive: 7.46%
62 | COc1cc2cc3c(N)c(C(=O)NCc4ccco4)sc3nc2cc1OC | inconclusive: 44.7%
63 | COc1cc(C#Cc2ccc3cc(CCO)oc(=O)c3c2)cc(OC)c1 | active: 58.2%
64 | CCn1nnnc1SCC(=O)c1ccc(C)cc1 | inconclusive: 42.1%
65 | Cc1cc(C(=O)N/N=C/c2ccccc2Br)no1 | inconclusive: 40.8%
66 | Cc1ccc(C(=O)NCCc2nnc(SCC(=O)Nc3nc(-c4ccccc4)cs3)n2C)cc1 | inconclusive: 43.6%
67 | CC1(C(=O)N2CCN(Cc3ccccc3Cl)CC2)CC1(Cl)Cl (stereo not given) | inconclusive: 41.7%
68 | Cc1cccc(NC(=O)c2ccc3nccnc3c2)n1 | inconclusive: 40%
69 | CCN(CC)C(=O)CSc1nnc(-c2cccc(OC)c2)o1 | inconclusive: 43.3%

Row | SMILES | reporter increase
70 | COc1cccc(CNc2cnc3ccccc3c2)c1O | inconclusive: 43.1%
71 | CC(C)NC(=O)C(Cc1ccccc1)N1C(=O)c2ccccc2C1=O (stereo not given) | inactive: 3.27%
72 | COc1ccc(-c2cc(C(=O)Nc3cc(Cl)ccc3O)no2)cc1 | inconclusive: 43.5%
73 | C[C@H]1CN([C@@H](C)CO)C(=O)c2cc(NS(=O)(=O)c3ccc(F)cc3)ccc2O[C@H]1CN(C)S(=O)(=O)c1ccc(Cl)cc1 | inactive: -2.52%
74 | COc1ccc(S(=O)(=O)N(C)C[C@@H]2Oc3ccc(NC(=O)CCC(F)(F)F)cc3C(=O)N([C@H](C)CO)C[C@@H]2C)cc1 | inactive: 3.97%
75 | CCOC(=O)c1c(C)[nH]c(C(=O)OCC(=O)Nc2cc(Cl)ccc2OC)c1C | inactive: -5.25%
76 | CC1(C)CN2C(=S)N(c3ccccc3)C(c3ccccc3)N2C1 (stereo not given) | inconclusive: 41.7%
77 | C(=N\Nc1ccccn1)/c1cccnc1 | inactive: 1.58%
78 | O=C(Nc1cccc(C(=O)Nc2ccc(Br)cc2)c1)c1ccccc1 | inconclusive: 41.9%
79 | O=C(Nc1ccc2[nH]c(=S)sc2c1)c1ccccc1 | inconclusive: 47.3%
80 | C[C@H](CO)N1C[C@H](C)[C@@H](CN(C)C(=O)C2CCC2)Oc2cc(C3=CCCC3)ccc2S1(=O)=O | inactive: -2.85%
81 | Cc1c(C(=O)Nc2cccc3cccnc23)oc2ccccc12 | inactive: 33.6%
82 | O=C(O)CSc1nnnn1-c1ccc2c(c1)OCCO2 | inactive: -2.12%
83 | O=C(Cc1sc(-c2ccccc2)nc1-c1ccccc1)Nc1ccccc1 | inactive: -5.76%
84 | COc1ccc(Cn2c(C3CC3)nc3ccc(NC(C)=O)cc3c2=O)cc1 | inconclusive: 44.2%
85 | CCCCN1CC(COCc2ccccc2)Oc2cccc(Oc3ccc(C(C)C)cc3)c2S1(=O)=O (stereo not given) | inactive: 1.56%
86 | COc1ccc2cc(CCC(C)=O)ccc2c1 | active: 65.1% and active: 57.6%
87 | O=C(Cc1cccs1)NCc1ccccc1Br | inconclusive: 40.6%
88 | CC(=O)c1cnc2nc(SCc3ccccc3)nn2c1C | inconclusive: 44.2%
89 | CC1CCc2sc(C(=O)Nc3ccc(C(N)=O)cc3)cc2C1 (stereo not given) | inconclusive: 37%
90 | Cc1ccc(S(=O)(=O)/N=C2/C=C(C3C(=O)CC(C)(C)CC3=O)C(=O)c3ccccc32)cc1 | inconclusive: 40.6%
